Each structure is given as a SMILES string.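 Five compound concentrations were applied to cells in 96-well plates for 48 hours; endpoints were derived by simple linear interpolation of the resulting dose-response curve. Here, GI50 denotes the concentration required for 50% inhibition of growth. TGI is the concentration that stops growth completely.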 A value given as a limit tells only on which side of the number the result lay.

In the test the test system is NCI-H322M lung. Briefly: growth of human tumour cells (NCI), 48 h.

As for `COc1ccc2[nH]cc(-c3cc4nc(-c5cn(C)c6ncc(Br)cc56)cc(N)n4n3)c2c1`, the GI50 is 1.75 µM and the TGI was 5.47 µM.
For `O=C1Nc2cc(Cl)ccc2/C1=C/c1cccc(OCc2ccccc2)c1`, in that order: 11.3 µM and 27.5 µM.
The like results for `O=C(Nc1ccc(OCc2ccc(F)cc2)cc1)Nc1ccc(Cl)c(C(F)(F)F)c1` were, in that order, 2.93 µM and 11.6 µM.
The like results for `C/C(=N/O)c1ccc(NC(=O)CSc2nnc(-c3ccc(-c4nc5ccc(Cl)cc5[nH]4)cc3)o2)cc1` were, in that order, 1.98 µM and 4.83 µM.
Regarding `C=C1CCC2C3(C)COC(c4ccccc4)OC3CCC2(C)C1CC(Sc1ccccc1)C1=CCOC1=O` (stereo not given), the GI50 is 35.3 µM and the TGI was over 100 µM.
